The source gives no read counts; variants with many changes may rest on few reads.
B1: LINE1-mini (parent)
chain: GGCAGAGCUCAACACAGCGUGGCAAAGUGGCUGUGGCUAGACUGCC

Variants of: B1
Test: self-cleavage, relative activity (ratio to wild type); higher = more cleavage; in vitro, sequencing; the parent is a self-cleaving ribozyme

Variant | self-cleavage
C15G G17A U43A | 0.15
C10A G19C G21A U38G C42G | 0.01
A26C G33U G35A | 0.02
G2U C18A A24G | 0.01
C3U C8A U9C | 0.09
G7U A11G C13A A14U G27U C31G G36A A39C | 0.02
G7C C8U C31G C46A | 0.12
C8U A24C G27C A39U U43A | 0.03
C3U G22A U32C U43G | 0.08
G19C G21U G33C G44A | 0.18
G5C C10A C13U G21A C31A | 0.04
A12C U34G A41C | 0.05
A14C G33C C42G | 0.04
G17A G22C A24G G27U | 0.01
G5U C10A G33A G44U | 0.02
C13A U28A C45G | 0.06
G17C G36U C45A | 0.01
A12C C23A G36C | 0.04
G1U C8G A14U C23G U38G | 0.01
G19A U28A C37G U38A | 0.01
G21C A24G U34C C45A | 0.07
C10U A12C C15G | 0
G5C C10A C23G G29U C45A | 0.01
A4C C10A U38C A39C | 0.01

Variant | self-cleavage
U9C G27C G33A | 0.02
G2U C23G G27A | 0.07
G1U A6G U38G | 0.01
G17A C31A C42U | 0.06
C10A A25C U32G C42A | 0
U20G A26C C31G U32C | 0.3
G2C G27U U38A C46U | 0.11
C3G G5U C23G G35C | 0.02
C13G U32G G33A | 0.05
G7C G27C G30U U43G | 0
G17U G22U C23A G36U C42A C46A | 0.01
G22U C37A G40C | 0.01
C8U A11G A16C G19C | 0.03
A24C G29C U43C | 0.04
C8A A14U G40C C46G | 0.05
A6C A12G C42A | 0.03
A16U G17A U20A U32C | 0.04
G1C G2C U43G | 0.04
A14C G19U A26C | 0.12
U28A G29A G40U | 0.18
G2C G19C A39G | 0.02
C8G A25C A41C | 0.1
C8G G17U G19U G27C C37A | 0.01
A6U A12C G29C C31A | 0.01

Variant | self-cleavage
G1U A14G G29C | 0.29
A16G G30A G33U | 0.03
C8G A12G C42A | 0.02
C8U U9A C10U G21A C31A G40U | 0.03
U34C G40A C42G | 0.1
G5C G7A C10G C23G U38G A41C | 0.01
C10G C42U U43G | 0.05
U20G G21U G40C | 0.19
U9A C18U C37G C46A | 0
A4G C18U G29C | 0.13
G5A C10U C23A A24C U38A | 0.01
G7C C8A U32A C45G | 0.15
C8A G19A A26G G29A G36C | 0.26
A24G G30U G44A | 0.09
C13U G29A C46A | 0.08
C37U U38G C46G | 0.61
G7U C23A G36A C46A | 0.02
C8G G22U C23A G40C | 0.06
A4G A16U C45G | 0.06
G1C G2U A11C U28A | 0.02
C3U A6U C46U | 0.2
G44U C45A C46U | 0
C3U G29A C31A A39U G40U | 0.04
C3A A4C G19U G21C | 0.07

Variant | self-cleavage
G1U C15A G21C C23G G27A U28G | 0.01
G1A C3G A6U A14U U32C A39G C45U | 0.11
G19C G22C G29U U38A G40U | 0.06
C8U U9C G30U U34C | 0.01
G1A C8U U20G A25U G27A | 0.31
A4U A12G A24G U34C | 0.06
A26C U34C G35U C42G | 0.03
A24U C31A U43C | 0
C8G C10U U43G | 0
C10A A39C G44C | 0.05
A14C A25U U34C A41C C46G | 0.05
G2C U20G G21C G33A | 0.02
A4G G7U C15A A16U G21C | 0.03
A12G G19A G29U U38C | 0.15
A11C G21U G36C | 0.01
A4U U20G A25C C37G A39U | 0.01
A26C G29U C42U | 0.21
C8U G17A U28G A41U | 0.26
G7C A12C A14U G30U U38A | 0
G1A C8G A26U G30A | 0.53
C18U A25C U32G A39U | 0.02
A25G G35C U43A | 0.06
G2A C15A C18A U34C | 0.07
A6C U32C G40C G44C | 0.01

Variant | self-cleavage
G2C A14C A25G A39G C46A | 0.01
G1U G2U C10U G21A C37A | 0.04
G2A A12C C23A G33A C46U | 0.13
G2A A12G U20A G36U | 0.03
G1C G17A G19A U43A | 0.01
G30A G33C G44C | 0.01
C3U C13A G19A | 0.16
C3A A24U U32A | 0.26
A12U C18A G29C C37A C46U | 0
U9G C10A C23U G27A | 0
G5U A12U C23A | 0.03
C8G C13U A16G | 0.07
A4U G7U G36U | 0.01
G5U C15G A41C | 0.07
A4C G30A C37G | 0.3
C15A C23A G33C | 0.05
U9G C37A G44A | 0.13
U20A G30A U38A G44C | 0.26
G2A G33C G35U G36C G40U | 0.04
A4G G21U G35U A39C | 0.38
C13U A16C C45G | 0.01
C3G A6U C15A A25G G27C U28C | 0.06
C13A G30C U34G | 0.01
C3G A6U U9G C18A | 0.4

Variant | self-cleavage
A14G C18A C23G C37G | 0.02
G19C U38C C45U | 0.19
G7A C8U C18U C23U | 0.34
G21U G22A C46G | 1.69
C15A G17A G22C U34C | 0.06
G30A U34A C45G | 0.06
A6U A11C C13U G19A | 0.01
C3A A26C C31G C46U | 0
C8U G33A G35C | 0.09
G2C G17U C37G G44C | 0.1
G1U A4C G17C G22U U28C | 0.05
C3A C18G U28A C42U | 0.21
U20G G35A G40A G44A | 0.12
U9C G21C A24U G40A C42U G44A | 0
C8U G17C A24C A41C | 0.05
A16U U32G G35U | 0.06
C15A G27U U28G A39G | 0.01
G1U G21U A26G | 0.58
A6C C10A G30U | 0.58
G29C U43A C45G | 0
A26C G27U U38C | 0.97
G7U C10A G40U | 0.04
C3U A6C C45G | 0.11
C3G U9A A16G | 1.54

Variant | self-cleavage
A4C C18G G40A C45A | 0.04
C13A G27A G33A U38A | 0.04
A4U A11U C18G G29U | 0.02
A14U G19U A41U | 0.08
U20A U28A U32G | 0.13
G2A C10U G21C A41C | 0.02
C3G C13U C18U G19A A41G | 0.02
G29C U34A A41C | 0.06
G1A G2A A4U C8A U9G C45A | 1.52
G2C G5C C45U | 0.04
A16U G40U A41G | 0.11
G19C G22C G27U G30C | 0.14
U9A A12U C15U G22A | 0.29
C13U C15G C42G | 0.02
A11C G19C A25U | 0.03
U9A G30U G44C | 0.03
G2U U38C C45A | 0.23
A16U C18A U38A | 0.07
G5C U9C G21C | 0.01
A11U A12G G27C C42A | 0
C8A A11G C18A G29C C31U G40U | 0
A6G C8A U20A G33U | 0.07
C10A A24G G35U | 0.06

Source: the RNAGym collection of RNA variant scans (doi:10.7554/elife.90254)
